Data: patent US8633212B2, “Inhibitors of beta-secretase” (Vitae Pharmaceuticals, Inc., priority 2009, dated 2014)

Target: ectodomain of BACE (aa 1-454) fused to a myc-his tag, secreted from HEK293/BACEect. cells (Homo sapiens (Human), UniProt P56817)
Experiment: biochemical

SMILES | IC50 [nM]
CO[C@H]1CC[C@]2(CC1)Cc1ccc(-c3cnc(C)nc3)cc1C21C=C(N)N(C(C)C)C1=O (stereo partly shown) [Compound 548] | 23
CO[C@H]1CC[C@]2(CC1)Cc1ccc(Br)cc1C21N=C(N)N(Cc2ccccc2)C1=O (stereo partly shown) [Compound 389] | 17.2
COC1CCC2(CC1)Cc1ccc(C#CC3CC3)cc1C21N=C(N)N(CC2CCN(C)C2)C1=O (stereo not shown) [Compound 330] | 24
COC1CCC2(CC1)Cc1ccc(C#CC3CC3)cc1C21N=C(N)N([C@H](C)c2ccccc2)C1=O (stereo partly shown) [Compound 342] | 37.5
COC1CCC2(CC1)Cc1ccc(CCC3CC3)cc1C21N=C(N)N(C)C1=O (stereo not shown) [Compound 148] | 5.4
COCCN1C(=O)C2(N=C1N)c1cc(C#N)ccc1CC21CCc2ccccc2CC1 (stereo not shown) [Compound 416] | 16.1
CN1C(=O)C2(N=C1N)c1cc(-c3ccccc3)ccc1OC21CCc2ccccc2CC1 (stereo not shown) [Compound 420] | 23.1
CCCCN1C(=O)C2(N=C1N)c1cc(C#CC3CC3)ccc1CC21CCC(OC)CC1 (stereo not shown) [Compound 323] | 7.1
COC1CCC2(CC1)Cc1ccc(CCC3CC3)cc1C21N=C(N)N(Cc2ccc(C#N)cc2)C1=O (stereo not shown) [Compound 387] | 15.5
CN1C(=O)C2(N=C1N)c1cc(OCC(F)(F)F)ccc1OC21CCc2ccccc2CC1 (stereo not shown) [Compound 426] | 7
COC1CCC2(CC1)Cc1ccc(CCC3CC3)cc1C21N=C(N)N(Cc2ccc(F)cc2)C1=O (stereo not shown) [Compound 359] | 14.1
COC1CCC2(CC1)Cc1ccc(-c3cncc(C#N)c3)cc1C21N=C(N)N(CC(F)(F)F)C1=O (stereo not shown) [Compound 339] | 22.5
CCCN1C(=O)C2(N=C1N)c1cc(C#CC3CC3)ccc1CC21CCC(OC)CC1 (stereo not shown) [Compound 322] | 5.2
COCCCc1ccc2c(c1)C1(N=C(N)N(C)C1=O)C1(CCC(OC)CC1)C2 (stereo not shown) [Compound 220] | 23.2
COC1CCC2(CC1)Cc1ccc(C#CC3CC3)cc1C21N=C(N)N(CCN(C)C)C1=O (stereo not shown) [Compound 325] | 14
COCCN1C(=O)C2(N=C1N)c1cc(-c3cncc(F)c3)ccc1CC21CCc2ccccc2CC1 (stereo not shown) [Compound 415] | 8.1
COC1CCC2(CC1)Cc1ccc(Br)cc1C21N=C(N)N(C2COC2)C1=O (stereo not shown) [Compound 431] | 55.8
COC1CCC2(CC1)Cc1ccc(CCC3CC3)cc1C21N=C(N)N(Cc2ccccc2Cl)C1=O (stereo not shown) [Compound 364] | 24.1
COC1CCC2(CC1)Cc1ccc(CCC3CC3)cc1C21N=C(N)N(CC(F)F)C1=O (stereo not shown) [Compound 374] | 28.9
COC1CCC2(CC1)Cc1ccc(Br)cc1C21N=C(N)N(N(C)C)C1=O (stereo not shown) [Compound 433] | 575
COC1CCC2(CC1)Cc1ccc(CCC3CC3)cc1C21N=C(N)N(Cc2cccc(F)c2)C1=O (stereo not shown) [Compound 353] | 15.8
CN1C(=O)C2(N=C1N)c1cc(CCC3CC3)ccc1OC21CCc2ccccc2CC1 (stereo not shown) [Compound 422] | 6.8
CCC(C)N1C(=O)C2(N=C1N)c1cc(C#CC3CC3)ccc1CC21CCC(OC)CC1 (stereo not shown) [Compound 321] | 22.2
COC1CCC2(CC1)Cc1ccc(OCC3CC3)cc1C21N=C(N)N(C(C)C)C1=O (stereo not shown) [Compound 173] | 16.7
NC1=NC2(CCS1)c1cc(Br)ccc1CC21CCc2ccccc2CC1 (stereo not shown) [Compound 441] | 19500
COC1CCC2(CC1)Cc1ccc(C#CC3CC3)cc1C21N=C(N)N(CCC(F)(F)F)C1=O (stereo not shown) [Compound 326] | 16.1

SMILES | IC50 [nM]
COC1CCC2(CC1)Oc1ccc(Br)cc1C21CCSC(N)=N1 (stereo not shown) [Compound 439] | 30000
CN1C(=O)C2(N=C1N)c1ccccc1CC21CCc2ccccc2CC1 (stereo not shown) [Compound 399] | 74.6
COC1CCC2(CC1)Cc1ccc(C#CC3CC3)cc1C21N=C(N)N(Cc2cccc(-c3nccs3)c2)C1=O (stereo not shown) [Compound 324] | 10.3
COC1CCC2(CC1)Cc1ccc(Br)cc1C21N=C(N)N(C2CCN(C)CC2)C1=O (stereo not shown) [Compound 434] | 533
COC1CCC2(CC1)Cc1ccc(CCC3CC3)cc1C21N=C(N)N(CC2CCOCC2)C1=O (stereo not shown) [Compound 376] | 11.3
COC1CCC2(CC1)Cc1ccc(-c3cnc(C4CC4)s3)cc1C21N=C(N)N(C)C1=O (stereo not shown) [Compound 208] | 39.9
CCCN1C(=O)C2(N=C1N)c1cc(OCC3CC3)ccc1CC21CCC(OC)CC1 (stereo not shown) [Compound 383] | 6.2
CN1C(=O)C2(N=C1N)c1cc(Cl)ccc1CC21CCc2ccccc2CC1 (stereo not shown) [Compound 398] | 33.8
COCC#Cc1ccc2c(c1)C1(N=C(N)N(C)C1=O)C1(CCC(OC)CC1)C2 (stereo not shown) [Compound 219] | 11.2
CC(C)N1C(=O)C2(N=C1N)c1cc(C#N)ccc1OC21CCc2ccccc2CC1 (stereo not shown) [Compound 428] | 293
COC1CCC2(CC1)Cc1ccc(CCC3CC3)cc1C21N=C(N)N(CCc2ccccc2)C1=O (stereo not shown) [Compound 363] | 17.3
CC#Cc1csc(-c2ccc3c(c2)C2(N=C(N)N(C(C)C)C2=O)C2(CCC(OC)CC2)C3)c1 (stereo not shown) [Compound 169] | 20.3
COC1CCC2(CC1)Cc1ccc(CCC3CC3)cc1C21N=C(N)N(CC2CCN(C(C)=O)CC2)C1=O (stereo not shown) [Compound 372] | 9.7
COC1CCC2(CC1)Oc1ccc(OCC3CC3)cc1C21N=C(N)N(C)C1=O (stereo not shown) [Compound 132] | 24.9
CN1C(=O)C2(N=C1N)c1cc(OCC3CC3)ccc1OC21CCc2ccccc2CC1 (stereo not shown) [Compound 425] | 4.1
CN1C(=O)C2(N=C1N)c1cc(C#N)ccc1OC21CCc2ccccc2CC1 (stereo not shown) [Compound 424] | 53.6
COc1cccc(CN2C(=O)C3(N=C2N)c2cc(CCC4CC4)ccc2CC32CCC(OC)CC2)c1 (stereo not shown) [Compound 356] | 192
COC1CCC2(CC1)Cc1ccc(CCC3CC3)cc1C21N=C(N)N(CC2CCCO2)C1=O (stereo not shown) [Compound 348] | 12.6
CC(C)N1C(=O)C2(N=C1N)c1cc(Br)ccc1OC21CCc2ccccc2CC1 (stereo not shown) [Compound 427] | 182
COC1CCC2(CC1)Cc1ccc(C(=O)N3CCCC3)cc1C21N=C(N)N(C)C1=O (stereo not shown) [Compound 209] | 814
COCCOc1ccc2c(c1)C1(C=C(N)N(CC(F)(F)F)C1=O)[C@]1(CC[C@H](OC)CC1)C2 (stereo partly shown) [Compound 550] | 77
COC1CCC2(CC1)Oc1ccc(CCC3CC3)cc1C21N=C(N)N(C)C1=O (stereo not shown) [Compound 124] | 21.5
COC1CCC2(CC1)Cc1ccc(CCC3CC3)cc1C21N=C(N)N(CCC(F)(F)F)C1=O (stereo not shown) [Compound 371] | 24.3
COC1CCC2(CC1)Cc1ccc(CCCC(C)C)cc1C21N=C(N)N(C)C1=O (stereo not shown) [Compound 222] | 16
CN1C(=O)C2(N=C1N)c1cc(C#CC3CC3)ccc1OC21CCc2ccccc2CC1 (stereo not shown) [Compound 421] | 14.8
COC1CCC2(CC1)Cc1ccc(CCC3CC3)cc1C21N=C(N)N(Cc2ccc(F)cn2)C1=O (stereo not shown) [Compound 357] | 12.5

SMILES | IC50 [nM]
COC1CCC2(CC1)Cc1ccc(CCC3CC3)cc1C21N=C(N)N(Cc2ccccn2)C1=O (stereo not shown) [Compound 367] | 15.8
COC1CCC2(CC1)Cc1ccc(Br)cc1C21CN(CC(F)(F)F)C(N)=N1 (stereo not shown) [Compound 446] | 4330
COC1CCC2(CC1)Cc1ccc(CCC3CC3)cc1C21N=C(N)N(CC(F)(F)F)C1=O (stereo not shown) [Compound 345] | 61.5
COC1CCC2(CC1)Cc1ccc(OCC3CC3)cc1C21N=C(N)N(CC(F)(F)F)C1=O (stereo not shown) [Compound 341] | 13.5
COC1CCC2(CC1)Cc1ccc(C#CC3CC3)cc1C21N=C(N)N(CCCN(C)C)C1=O (stereo not shown) [Compound 343] | 22000
COC1CCC2(CC1)Cc1ccc(-c3cc(Br)cs3)cc1C21N=C(N)N(C(C)C)C1=O (stereo not shown) [Compound 168] | 29.3
COC1CCC2(CC1)Cc1ccc(-c3ccn(C4CC4)c(=O)c3)cc1C21N=C(N)N(C)C1=O (stereo not shown) [Compound 201] | 188
COC1CCC2(CC1)Cc1ccc(-c3cncc(F)c3)cc1C21N=C(N)N(CC2CCO2)C1=O (stereo not shown) [Compound 319] | 13.7
COCCCN1C(=O)C2(N=C1N)c1cc(CCC3CC3)ccc1CC21CCC(OC)CC1 (stereo not shown) [Compound 329] | 7.4
COC1CCC2(CC1)Cc1ccc(-c3cncc(C#N)c3)cc1C21N=C(N)N(C(C)C)C1=O (stereo not shown) [Compound 156] | 12.2
CCC(C)N1C(=O)C2(N=C1N)c1cc(OCC3CC3)ccc1CC21CCC(OC)CC1 (stereo not shown) [Compound 382] | 29.2
COC1CCC2(CC1)Cc1ccc(-c3cccc(S(C)(=O)=O)c3)cc1C21N=C(N)N(C)C1=O (stereo not shown) [Compound 206] | 40.8
COC1CCC2(CC1)Cc1ccc(C#CC3CC3)cc1C21CCSC(N)=N1 (stereo not shown) [Compound 438] | 79.1
COCCN1C(=O)C2(N=C1N)c1cc(-c3cccnc3F)ccc1CC21CCc2ccccc2CC1 (stereo not shown) [Compound 414] | 6.3
CC#Cc1csc(-c2ccc3c(c2)C2(N=C(N)N(C(C)C)C2=O)C2(CCC(OC)CC2)C3)n1 (stereo not shown) [Compound 171] | 55.8
CC(C)N1C(=O)C2(N=C1N)c1cc(C#N)ccc1CC21CCc2ccccc2CC1 (stereo not shown) [Compound 411] | 91.4
COC1CCC2(CC1)Cc1ccc(CCC3CC3)cc1C21N=C(N)N(Cc2ccccc2F)C1=O (stereo not shown) [Compound 354] | 47.7
COc1ccc2c(c1)C1(N=C(N)N(C)C1=O)C1(CCc3ccccc3CC1)C2 (stereo not shown) [Compound 404] | 46.8
COC1CCC2(CC1)Cc1ccc(Br)cc1C21CCSC(N)=N1 (stereo not shown) [Compound 436] | 2360
CCCc1cncc(-c2ccc3c(c2)C2(N=C(N)N(C(C)C)C2=O)C2(CCC(OC)CC2)C3)c1 (stereo not shown) [Compound 167] | 42.5
COC1CCC2(CC1)Cc1ccc(-c3cc(F)cc(Cl)c3)cc1C21CN(CC(F)(F)F)C(N)=N1 (stereo not shown) [Compound 445] | 340
COC1CCC2(CC1)Cc1ccc(C(F)(F)F)cc1C21N=C(N)N(C)C1=O (stereo not shown) [Compound 230] | 321
COC1CCC2(CC1)Cc1ccc(CCC3CC3)cc1C21N=C(N)N(CC2CCOC2)C1=O (stereo not shown) [Compound 370] | 3.5
COCCN1C(=O)C2(N=C1N)c1cc(CCC3CC3)ccc1CC21CCC(OC)CC1 (stereo not shown) [Compound 369] | 13.2
